The list shows a part of the results. Single values are uncertain, as repeats are few or missing.
Experiments:
Experiment in all cases: cell count relative to DMSO control; melanoma cells; higher = more viable cells
Conditions in all cases: library dose: standard library concentration; 72 h
G361 = tested on: G361
IPC-298 = tested on: IPC-298
IST-MEL1 = tested on: IST-MEL1
LB2518-MEL = tested on: LB2518-MEL
LOXIMVI = tested on: LOXIMVI
MEL-HO = tested on: MEL-HO
MZ2-MEL = tested on: MZ2-MEL
MeWo = tested on: MeWo
RPMI7951 = tested on: RPMI7951
RVH-421 = tested on: RVH-421
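Note: cells treated in 1,536-well plates, then fixed and DAPI-stained, with nuclei counted from automated high-throughput microscope images.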

| Structure (SMILES) | cell count (G361) | cell count (IPC-298) | cell count (IST-MEL1) | cell count (LB2518-MEL) | cell count (LOXIMVI) | cell count (MEL-HO) | cell count (MZ2-MEL) | cell count (MeWo) | cell count (RPMI7951) | cell count (RVH-421) |
| --- | --- | --- | --- | --- | --- | --- | --- | --- | --- | --- |
| CCN(CC)CCNC(=O)c1c(C)[nH]c(/C=C2\C(=O)Nc3ccc(F)cc32)c1C [sunitinib] + O=C(O)c1ccc(-c2c[nH]c3ncc(-c4ccccc4)cc23)cc1C1CCCC1 [GSK650394] (first compound 2 µM, partner dose 0.8 µM) | 54.8% | 72.4% | 74.9% | 68.7% | 89.5% | 78.5% | 96% | 63.8% | 72.5% | 78.1% |
| C[C@]1(O)C[C@@H](c2nc(-c3ccc4ccc(-c5ccccc5)nc4c3)c3c(N)nccn32)C1 + Cc1ccc(NC(=O)c2cccc(N(C)C)c2)cc1NC(=O)c1ccc(O)cc1 [ZM336372] (first compound 2 µM, partner dose 10 µM) | 91.4% | 112% | 88.6% | 103% | 116% | 96.6% | 101% | 89.9% | 106% | 92.6% |
| CCN(CC)CCNC(=O)c1c(C)[nH]c(/C=C2\C(=O)Nc3ccc(F)cc32)c1C [sunitinib] + Oc1cc(-c2nc(-c3ccccc3)[nH]c2-c2ccncc2)ccc1Cl [L779450] (first compound 2 µM, partner dose 1 µM) | 37.7% | 48.2% | 76.7% | 51.3% | 91.9% | 77.5% | 79.1% | 38% | 52.1% | 87.4% |
| C[C@]1(O)C[C@@H](c2nc(-c3ccc4ccc(-c5ccccc5)nc4c3)c3c(N)nccn32)C1 + O=C(Nc1cccc(Cl)c1)Nc1ncc(CCNc2ncnc3ccsc23)s1 [SNS314] (first compound 2 µM, partner dose 0.004 µM) | 69.5% | 81.5% | 56.3% | 76.7% | 63.1% | 83% | 85.9% | 50.8% | 34.4% | 75.8% |
| C[C@]1(O)C[C@@H](c2nc(-c3ccc4ccc(-c5ccccc5)nc4c3)c3c(N)nccn32)C1 + O=S(=O)(c1ccccc1)N(CC(F)(F)F)c1ccc(C(O)(C(F)(F)F)C(F)(F)F)cc1 [T0901317] (first compound 2 µM, partner dose 7 µM) | 77.2% | 91.2% | 102% | 96.7% | 98.5% | 90.8% | 142% | 77.4% | 79.8% | 91.6% |
| Cn1cnc2c(F)c(Nc3ccc(Br)cc3Cl)c(C(=O)NOCCO)cc21 [selumetinib] + Oc1nc(-c2ccc(C(F)(F)F)cc2)nc2c1CSCC2 [XAV939] (first compound 0.075 µM, partner dose 10 µM) | 64.5% | 47.1% | 75.3% | 35.9% | 101% | 63.8% | 66.7% | 64.5% | 83.9% | 66.7% |
| Cn1cnc2c(F)c(Nc3ccc(Br)cc3Cl)c(C(=O)NOCCO)cc21 [selumetinib] + COc1cc2ncnc(Nc3ccc(Oc4ccccc4)cc3)c2cc1OC [SrcI1] (first compound 0.075 µM, partner dose 10 µM) | 51.4% | 56.1% | 74.6% | 50.7% | 51% | 73.9% | 56.2% | 51.6% | 65.3% | 87.8% |
| COc1cc([C@@H]2c3cc4c(cc3[C@@H](O[C@@H]3O[C@@H]5CO[C@@H](C)O[C@H]5[C@H](O)[C@H]3O)[C@H]3COC(=O)[C@H]23)OCO4)cc(OC)c1O [etoposide] + NCC(=O)Nc1ccc(-n2nc(C(F)(F)F)cc2-c2ccc3c(ccc4ccccc43)c2)cc1 [OSU03012] (first compound 0.1 µM, partner dose 5 µM) | 91.3% | 52.2% | 77.1% | 104% | 76.3% | 77.8% | 77.2% | 93.6% | 109% | 76.4% |
| Cn1cnc2c(F)c(Nc3ccc(Br)cc3Cl)c(C(=O)NOCCO)cc21 [selumetinib] + CCN(CC)CCCCNc1ncc2cc(-c3cc(OC)cc(OC)c3)c(NC(=O)NC(C)(C)C)nc2n1 [PD173074] (first compound 0.075 µM, partner dose 0.5 µM) | 68.8% | 59.3% | 87% | 46.9% | 85.9% | 71.2% | 82.3% | 56.4% | 93% | 86.5% |
| COc1cc([C@@H]2c3cc4c(cc3[C@@H](O[C@@H]3O[C@@H]5CO[C@@H](C)O[C@H]5[C@H](O)[C@H]3O)[C@H]3COC(=O)[C@H]23)OCO4)cc(OC)c1O [etoposide] + CC(=O)O[C@@]12CO[C@@H]1C[C@H](O)[C@@]1(C)C(=O)[C@H](O)C3=C(C)[C@@H](OC(=O)[C@H](O)[C@@H](NC(=O)OC(C)(C)C)c4ccccc4)C[C@@](O)([C@@H](OC(=O)c4ccccc4)[C@H]21)C3(C)C [Docetaxel] (first compound 0.1 µM, partner dose 0.0005 µM) | 16.4% | 41.2% | 50.8% | 38.3% | 104% | 58.6% | 55.2% | 35.6% | 35.2% | 62.8% |
| COc1cc([C@@H]2c3cc4c(cc3[C@@H](O[C@@H]3O[C@@H]5CO[C@@H](C)O[C@H]5[C@H](O)[C@H]3O)[C@H]3COC(=O)[C@H]23)OCO4)cc(OC)c1O [etoposide] + CCCCCCCCCCCC1=C(O)C(=O)C=C(O)C1=O [Embelin] (first compound 0.1 µM, partner dose 6 µM) | 77.6% | 57.9% | 54.5% | 91% | 121% | 64.9% | 85.8% | 100% | 90.1% | 76.7% |
| C[C@]1(O)C[C@@H](c2nc(-c3ccc4ccc(-c5ccccc5)nc4c3)c3c(N)nccn32)C1 + COc1cc(Nc2ncc(F)c(Nc3ccc4c(n3)NC(=O)C(C)(C)O4)n2)cc(OC)c1OC [Tamatinib] (first compound 2 µM, partner dose 2 µM) | 59.8% | 73.8% | 55.8% | 84.1% | 16.1% | 62% | 66.1% | 63.8% | 17.6% | 89.9% |
| C[C@]1(O)C[C@@H](c2nc(-c3ccc4ccc(-c5ccccc5)nc4c3)c3c(N)nccn32)C1 + CCCCCCCCc1ccc(CCC(N)(CO)CO)cc1 [fingolimod] (first compound 2 µM, partner dose 10 µM) | 0.732% | 56.2% | 5.34% | 0.238% | 9.8% | 23.9% | 0.914% | 24.3% | 1.47% | 13.6% |
| CCN(CC)CCNC(=O)c1c(C)[nH]c(/C=C2\C(=O)Nc3ccc(F)cc32)c1C [sunitinib] + CCCS(=O)(=O)Nc1ccc(F)c(C(=O)c2c[nH]c3ncc(Cl)cc23)c1F [PLX4720] (first compound 2 µM, partner dose 0.4 µM) | 66% | 64.3% | 90.6% | 71.5% | 165% | 86.8% | 94.5% | 78.3% | 92.6% | 71.4% |
| C[C@]1(O)C[C@@H](c2nc(-c3ccc4ccc(-c5ccccc5)nc4c3)c3c(N)nccn32)C1 + COc1cc2ncnc(Nc3ccc(Oc4ccccc4)cc3)c2cc1OC [SrcI1] (first compound 2 µM, partner dose 10 µM) | 32.4% | 67% | 84.8% | 95% | 63.2% | 83.7% | 55.9% | 74.5% | 40.3% | 109% |
| COc1cc([C@@H]2c3cc4c(cc3[C@@H](O[C@@H]3O[C@@H]5CO[C@@H](C)O[C@H]5[C@H](O)[C@H]3O)[C@H]3COC(=O)[C@H]23)OCO4)cc(OC)c1O [etoposide] + CC(C)C[C@H](NC(=O)[C@H](Cc1ccccc1)NC(=O)c1cnccn1)B(O)O [Bortezomib] (first compound 0.1 µM, partner dose 0.005 µM) | 2.1% | 13.8% | 14.7% | 12.1% | 24.1% | 50.3% | 4.5% | 23.3% | 2.6% | 22.5% |
| Cn1cnc2c(F)c(Nc3ccc(Br)cc3Cl)c(C(=O)NOCCO)cc21 [selumetinib] + Cn1sc(=O)n(Cc2ccccc2)c1=O [TDZD-8] (first compound 0.075 µM, partner dose 2 µM) | 71.8% | 60.4% | 87% | 40% | 96.2% | 101% | 86% | 79.6% | 108% | 76.4% |
| C[C@]1(O)C[C@@H](c2nc(-c3ccc4ccc(-c5ccccc5)nc4c3)c3c(N)nccn32)C1 + Cn1c(=O)n(-c2ccc(C(C)(C)C#N)cc2)c2c3cc(-c4cnc5ccccc5c4)ccc3ncc21 [NVP-BEZ235] (first compound 2 µM, partner dose 0.02 µM) | 42.1% | 66% | 74.8% | 64.7% | 48.1% | 66.7% | 61.3% | 50.3% | 45.9% | 74.4% |
| Cn1cnc2c(F)c(Nc3ccc(Br)cc3Cl)c(C(=O)NOCCO)cc21 [selumetinib] + OCc1c[nH]c2ccccc12 [Indole-3-carbinol] (first compound 0.075 µM, partner dose 4 µM) | 61% | 53.4% | 86.9% | 44.8% | 107% | 78.5% | 58.2% | 79.3% | 106% | 69.3% |
| C[C@]1(O)C[C@@H](c2nc(-c3ccc4ccc(-c5ccccc5)nc4c3)c3c(N)nccn32)C1 + Oc1nc(-c2ccc(C(F)(F)F)cc2)nc2c1CSCC2 [XAV939] (first compound 2 µM, partner dose 10 µM) | 71.6% | 81.6% | 93.5% | 89.1% | 177% | 85.5% | 116% | 85.5% | 92.1% | 90.3% |
| C[C@]1(O)C[C@@H](c2nc(-c3ccc4ccc(-c5ccccc5)nc4c3)c3c(N)nccn32)C1 + O=C(O)c1ccc2c(c1)nc(Nc1cccc(Cl)c1)c1ccncc12 [CX4945] (first compound 2 µM, partner dose 2 µM) | 50.5% | 50.8% | 70.4% | 100% | 41.7% | 52.5% | 70.8% | 80.8% | 39.6% | 62.2% |

— the supplement of paper PMC4604168 (melanoma cell lines)
